# Laboratory results taken from the supplement of paper PMC4967469.
# Compound: CCOc1cc2ncc(C#N)c(Nc3ccc(F)c(Cl)c3)c2cc1NC(=O)/C=C/CN(C)C [EKB-569]
# Assay: Viability of human cancer cell lines after 72 h of drug (GDSC screen)
# Conditions: top dose inferred
# Method: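 Human cancer cell lines in 384-well plates, medium with 10% serum, drug for 72 h over a 256-fold dose range (nine 2-fold or five 4-fold steps up to the top dose). Adherent lines were fixed and stained with the nucleic acid dye Syto60, suspension lines read with resazurin; signal relative to control wells, capped at 0 and 100%. One two-parameter sigmoid per drug and line, fitted in a mixed model over all curves with the slope shared within a line.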
Cell Line,AUC,IC50 [nM]
"SW1573 (lung adenocarcinoma, adherent, top dose 2.5 µM)",0.95,> 2500
"Daudi (Burkitt lymphoma, suspension, top dose 2.5 µM)",0.803,1060
"786-0 (kidney, adherent, top dose 2.5 µM)",0.815,1240
"MDST8 (large intestine, adherent, top dose 2.5 µM)",0.971,> 2500
"CHP-212 (neuroblastoma, adherent, top dose 2.5 µM)",0.826,1360
"KYAE-1 (oesophagus, suspension, top dose 2.5 µM)",0.216,20.6
"Becker (glioma, adherent, top dose 2.5 µM)",0.929,> 2500
"OVISE (ovary, adherent, top dose 2.5 µM)",0.632,410
"COLO-205 (large intestine, suspension, top dose 2.5 µM)",0.965,> 2500
"HCC38 (breast, adherent, top dose 2.5 µM)",0.901,> 2500
"TUR (B-cell lymphoma, suspension, top dose 2.5 µM)",0.65,393
"THP-1 (acute myeloid leukaemia, suspension, top dose 2.5 µM)",0.124,11.9
"NCI-SNU-1 (stomach, suspension, top dose 2.5 µM)",0.85,2000
"SW837 (large intestine, adherent, top dose 2.5 µM)",0.87,> 2500
"NMC-G1 (glioma, adherent, top dose 2.5 µM)",0.854,> 2500
"RH-1 (rhabdomyosarcoma, adherent, top dose 2.5 µM)",0.903,2340
"SN12C (kidney, adherent, top dose 2.5 µM)",0.954,> 2500
"OCI-AML2 (acute myeloid leukaemia, suspension, top dose 2.5 µM)",0.986,> 2500
"KOPN-8 (B-cell leukaemia, suspension, top dose 2.5 µM)",0.688,481
"CaR-1 (large intestine, adherent, top dose 2.5 µM)",0.944,> 2500
"SK-N-SH (neuroblastoma, adherent, top dose 2.5 µM)",0.982,> 2500

Cell Line,AUC,IC50 [nM]
"KNS-42 (glioma, adherent, top dose 2.5 µM)",0.982,> 2500
"OVCAR-8 (ovary, adherent, top dose 2.5 µM)",0.92,> 2500
"YT (lymphoid neoplasm, suspension, top dose 2.5 µM)",0.871,1760
"CAL-72 (osteosarcoma, adherent, top dose 2.5 µM)",0.984,> 2500
"L-540 (Hodgkin lymphoma, suspension, top dose 2.5 µM)",0.881,2120
"GCT (soft tissue, adherent, top dose 2.5 µM)",0.989,> 2500
"FTC-133 (thyroid, adherent, top dose 2.5 µM)",0.986,> 2500
"MZ1-PC (pancreas, adherent, top dose 2.5 µM)",0.616,352
"ALL-SIL (T-cell leukaemia, suspension, top dose 20 µM)",0.079,< 78.1
"NCI-H1703 (lung adenocarcinoma, adherent, top dose 2.5 µM)",0.786,1340
"A2058 (melanoma, adherent, top dose 2.5 µM)",0.961,> 2500
"RPMI-2650 (head and neck, adherent, top dose 2.5 µM)",0.928,> 2500
"EW-24 (Ewing sarcoma, semi-adherent, top dose 2.5 µM)",0.53,187
"ONS-76 (medulloblastoma, adherent, top dose 2.5 µM)",0.791,1220
"NCI-H2172 (non-small cell lung carcinoma, adherent, top dose 2.5 µM)",0.958,> 2500
"OPM-2 (myeloma, suspension, top dose 2.5 µM)",0.835,1230
"TCCSUP (bladder, adherent, top dose 2.5 µM)",0.976,> 2500
"H3118 (head and neck, adherent, top dose 2.5 µM)",0.356,60.1
"SJSA-1 (bone, adherent, top dose 2.5 µM)",0.939,> 2500
"HC-1 (hairy cell leukaemia, suspension, top dose 2.5 µM)",0.585,264
"EVSA-T (breast, adherent, top dose 2.5 µM)",0.988,> 2500

Cell Line,AUC,IC50 [nM]
"SiHa (cervix, adherent, top dose 2.5 µM)",0.984,> 2500
"SW156 (kidney, adherent, top dose 2.5 µM)",0.898,> 2500
"HeLa (cervix, adherent, top dose 2.5 µM)",0.976,> 2500
"23132-87 (stomach, adherent, top dose 2.5 µM)",0.959,> 2500
"LS-1034 (large intestine, adherent, top dose 2.5 µM)",0.936,> 2500
"KG-1 (acute myeloid leukaemia, suspension, top dose 2.5 µM)",0.659,410
"H3255 (lung adenocarcinoma, adherent, top dose 2.5 µM)",0.339,50.8
"Caov-3 (ovary, adherent, top dose 2.5 µM)",0.93,> 2500
"KGN (ovary, adherent, top dose 2.5 µM)",0.833,2110
"769-P (kidney, adherent, top dose 2.5 µM)",0.44,106
"CAKI-1 (kidney, adherent, top dose 2.5 µM)",0.722,926
"L-1236 (Hodgkin lymphoma, suspension, top dose 2.5 µM)",0.965,> 2500
"EFM-19 (breast, adherent, top dose 2.5 µM)",0.972,> 2500
"ROS-50 (B-cell leukaemia, suspension, top dose 2.5 µM)",0.947,> 2500
"SW1710 (bladder, adherent, top dose 2.5 µM)",0.879,> 2500
"RT4 (bladder, adherent, top dose 2.5 µM)",0.955,> 2500
"JHH-2 (liver, adherent, top dose 2.5 µM)",0.913,> 2500
"Mo-T (hairy cell leukaemia, suspension, top dose 2.5 µM)",0.78,1050
"NY (osteosarcoma, adherent, top dose 2.5 µM)",0.979,> 2500
"Saos-2 (osteosarcoma, adherent, top dose 2.5 µM)",0.973,> 2500
"HOP-92 (large cell lung carcinoma, adherent, top dose 2.5 µM)",0.981,> 2500

Cell Line,AUC,IC50 [nM]
"NB7 (neuroblastoma, adherent, top dose 2.5 µM)",0.608,315
"GB-1 (glioma, adherent, top dose 2.5 µM)",0.937,> 2500
"QIMR-WIL (acute myeloid leukaemia, suspension, top dose 2.5 µM)",0.669,454
"OVCA433 (ovary, adherent, top dose 2.5 µM)",0.968,> 2500
"BB30-HNC (head and neck, adherent, top dose 2.5 µM)",0.623,337
"H2795 (mesothelioma, adherent, top dose 2.5 µM)",0.869,2240
"NCI-H810 (large cell lung carcinoma, adherent, top dose 2.5 µM)",0.956,> 2500
"NCI-H596 (lung adenocarcinoma, adherent, top dose 2.5 µM)",0.732,887
"AU565 (breast, adherent, top dose 2.5 µM)",0.547,213
"NCI-H748 (small cell lung carcinoma, suspension, top dose 2.5 µM)",0.959,> 2500
"KYSE-220 (oesophagus, adherent, top dose 2.5 µM)",0.757,904
"RVH-421 (melanoma, adherent, top dose 2.5 µM)",0.906,> 2500
"H2803 (mesothelioma, adherent, top dose 2.5 µM)",0.974,> 2500
"LS-411N (large intestine, adherent, top dose 20 µM)",0.608,2650
"COLO-684 (endometrium, suspension, top dose 2.5 µM)",0.911,> 2500
"H2369 (mesothelioma, adherent, top dose 2.5 µM)",0.97,> 2500
"VM-CUB-1 (bladder, adherent, top dose 2.5 µM)",0.953,> 2500
"KY821 (leukaemia, suspension, top dose 2.5 µM)",0.923,> 2500

# The IC50 comes from the fitted curve, where viability falls to half of the control; a limit (>, <) means that the fit lies beyond the doses tested. AUC sums up the same curve from the lowest dose to the 256-fold higher top dose: 1 means no effect, lower means more sensitive. Any top dose called inferred was calculated from the reported fits.
